Sequences with one replicate were seen in a single cluster, so their values are uncertain.
System: ATP
Experiment: switch fluorescence ratio, 500 uM ATP over buffer (Cy3 cluster intensity, sum of 5 cycles each) (fold (ratio)); higher = stronger signal-on switching upon ATP binding; sequences stand for … in TCGTCGGCAGCGTCAGATGTGTATAAGAGACAGTTTTTTTTTTTTTTTTTTTTTTTTT…TC
Details: aptamer strand: ATP DNA aptamer (quencher-CACCTGGGGGAGTATTGCGGAGGAAGG + anchor), 100 nM annealed; ATP concentration: 500 uM; one replicate
Procedure, shortened: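 Imaging in selection buffer was followed by imaging after 15 min with 500 uM ATP at 22 °C, for Cy3-labelled switching-strand clusters annealed to 100 nM quencher-labelled ATP aptamer on a modified Illumina MiSeq flow-cell. Five of these buffer/ATP cycles ran, separated by NaOH stripping and re-annealing. The fluorescence ratio per cluster is summed target-cycle over summed buffer-cycle Cy3 intensity, averaged per switch-domain sequence; clusters outside 100-1000 RFU were removed.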
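Also: ATP exposure 15 min at 22 °C before imaging.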

| Sequence | switch fluorescence ratio |
| --- | --- |
| TTCGGAGGTA | 0.993 |
| TCTGACCGGA | 1.05 |
| GATAATTTGC | 1.03 |
| ACTCGTACGT | 1.08 |
| GGGTCAGGAA | 1.01 |
| CGTGATTTCT | 0.957 |
| ATTTGCTCAA | 0.966 |
| GCAAGAAGAG | 0.986 |
| TACGGGATTA | 1.02 |
| GGCGTGGCGC | 0.983 |
| ATATCACATG | 1.01 |
| GTAAGTAACC | 1.07 |
| GATCTCTTCT | 1 |
| TCTCGTCTAT | 1.05 |
| TCAGTGTTAC | 0.984 |
| TCATTTATCC | 1.04 |
| CGTGTCGGGT | 1.02 |
| GATGGCCAGT | 1.14 |
| TCGGGTTGCC | 0.992 |
| GATGCGGGCC | 1.03 |
| AAAATATATC | 1.01 |
| TTCTGTCTGA | 1.01 |
| CTGGTATATG | 1.01 |
| CTCTGCATCT | 3.67 |
| ATCCAAGGGA | 1.01 |
| ATTACAGCTC | 1.06 |

| Sequence | switch fluorescence ratio |
| --- | --- |
| TCGTGATCAA | 1.04 |
| ATTTTCGTAT | 0.98 |
| TTTAGTGGTC | 1.01 |
| GATTGGTTTT | 1.02 |
| CCCTTGTTAT | 0.993 |
| ATAGTCTGGA | 1.01 |
| AACCCGGTGT | 1.17 |
| ATAATGCTA | 1.01 |
| AGTCCTGCCC | 1.08 |
| TGTTCCAGTT | 0.948 |
| ACGATACCTT | 1.51 |
| CGCCACCGGA | 1.02 |
| GTAAAATTCG | 0.976 |
| ATAGCACCCA | 1.12 |
| TCTTTGAGTT | 0.974 |
| GCAGGCATTG | 0.98 |
| GCTTCTGGTA | 0.971 |
| AATCTGCTCT | 1.02 |
| TGCTGGTTAT | 1.02 |
| GTTCAGTGTC | 1.09 |
| GCTGTATG | 1.02 |
| TACCTCATCT | 1.12 |
| AACTTCCGTA | 1.25 |
| GTTATGGGCT | 1.03 |
| TGACTAGAGC | 0.956 |
| TTGTGTGCCG | 1.03 |

| Sequence | switch fluorescence ratio |
| --- | --- |
| ACACGCTTAA | 1.12 |
| AATTCGCACA | 1.58 |
| TGAGTGGCGG | 0.946 |
| TGGAGTAGGC | 0.752 |
| AACACATGAC | 1.18 |
| CAACCGCACT | 5.33 |
| TCCGGGGCGC | 1.15 |
| ACGACATGTG | 1.05 |
| TTCCTCCAGA | 1.22 |
| TTCAAACGTA | 1 |
| GCGTGTGGCA | 1.01 |
| AGGAGTTCCT | 0.982 |
| CGCAGATTT | 1.04 |
| CCTGATTTTC | 0.996 |
| ACATCAGCAC | 1.02 |
| AATGACACGA | 1.07 |
| AGGTTGATGC | 0.935 |
| GACAGACCCT | 1.11 |
| GGTATAGCAG | 0.976 |
| TCTCTTTAGG | 0.991 |
| GGGAACATAC | 1.37 |
| CGTTTCGGTG | 1.02 |
| TGGTGCCACT | 0.996 |
| ACCAAACCTT | 2.64 |
| ACTTCTGCGT | 1.01 |

— the supplement of paper PMC10126150
